Source: PubChem BioAssay AID504706 (National Center for Advancing Translational Sciences (NCATS), 2011)
Hit rate of the full screen: of about 320,000 compounds, about 200 (0.062%) were called active. The shares of active, inactive and inconclusive entries below differ from those in the screen. Calls follow the shape of the dose curve; as a rule, active = well fitted activation curve with a large enough effect; inconclusive = small, poorly fitted or top-dose-only effect; inactive = no such curve, though single readings can be large or run the other way. Potencies of inconclusive entries are left out as doubtful fits.

Test: qHTS assay for re-activators of p53 using a Luc reporter; also: nearly all actives have a fitted effect of over 45% in size
Conditions: H1299 p53-A138V BP100-luciferase reporter, luminescence, 24 h; series mostly up to 92.2 µM
Procedure, shortened: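 H1299 (p53-null), stable ts p53-A138V + BP100-Luc; 1000 cells/well, Opti-MEM/10% FBS; cpd 4 pt, 1:5; 24 h, 37 deg C, 5% CO2; detection reagent 10 min RT; luminescence.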
Potency is read from the fitted curve at half-maximal effect; tags tell the direction and shape of the fitted curve.

| SMILES | Potency |
| --- | --- |
| COc1cc(C(c2c(C)[nH][nH]c2=O)c2c(C)[nH][nH]c2=O)ccc1OCc1ccc([N+](=O)[O-])cc1 | inconclusive [activator, partial curve] |
| CC(C)(C)c1ccc(-c2nc(C#N)c(NCc3ccncc3)o2)cc1 | inconclusive [activator, partial curve, poor fit] |
| Cc1nn(-c2ccccc2)c(C)c1Cc1ccc(O)cc1 | inactive |
| Cc1ccc(C(=O)Nc2nc3ccc(S(C)(=O)=O)cc3s2)o1 | inconclusive [activator, full curve, poor fit] |
| COc1cccc(NC(=O)CCC(=O)Nc2ccc3nc(N4CCOCC4)cc(C)c3c2)c1 | inconclusive [activator, full curve, poor fit] |
| C=CCc1ccccc1OCC(O)CN1CCN(Cc2ccc3c(c2)OCO3)CC1 (stereo not drawn) | inconclusive [activator, partial curve, poor fit] |
| O=C(COc1ccc(-c2ccccc2)cc1)N/N=C/c1cc(O)ccc1Br | inconclusive [activator, partial curve, poor fit] |
| COc1ccc(OC)c(/C=C/C(=O)c2ccc3c(c2)OCO3)c1 | inconclusive [activator, partial curve, poor fit] |
| O=c1oc2ccccc2cc1-c1nnc(NCc2ccco2)s1 | inconclusive [activator, full curve, poor fit] |
| Cc1ccc2c(c1)NC(=O)C(CC(=O)NCCCN1CCN(C3CCCCC3)CC1)O2 (stereo not drawn) | inactive |
| CC1CCCCN1S(=O)(=O)c1ccc(N(C(=O)c2cnccn2)C(C(=O)NC2CCCCC2)c2cccs2)cc1 (stereo not drawn) | inactive |
| O=C(NC1=NCCS1)c1ccc(Cl)s1 | inconclusive [activator, partial curve, poor fit] |
| COC(=O)c1nn(-c2ccc(-c3ccccc3)cc2)cc1O | inactive |
| CN1/C(=C\C(=O)Nc2cccc(Cl)c2)C(C)(C)c2ccccc21 | inconclusive [activator, partial curve, poor fit] |
| COc1ccc(O)c(/C=N/N2CCCCC2)c1 | inactive |
| COC(=O)N/N=C\c1ccccc1OC/C=C/c1ccccc1 | inconclusive [activator, partial curve, poor fit] |
| O=C(NNC(=O)c1cc2ccccc2cc1O)Nc1ccccc1F | inconclusive [activator, single point] |
| CCc1ccc(N2C(=O)C3NN=C(C(=O)OCc4ccccc4)C3C2=O)cc1 (stereo not drawn) | inactive |
| CCOCCc1nnc(NC(=O)CS(=O)(=O)c2ccc(C)cc2)s1 | inactive |
| Brc1ccc2oc(-c3ccn[nH]3)cc2c1 | inconclusive [activator, full curve, poor fit] |
| CCc1cc2c(=O)n(CCC(C)C)c(=S)[nH]c2s1 | inactive |
| Cc1cc(Br)ccc1NC(=O)CNC(=O)CSc1ncccn1 | inconclusive [activator, single point] |

| SMILES | Potency |
| --- | --- |
| Cc1c(C(=O)Nc2ccncc2)sc2nc(-c3ccc(F)cc3)cn12 | inconclusive [activator, single point] |
| Nc1nc(CN2CCN(c3ccccc3)CC2)nc(N2CCCc3ccccc32)n1 | inactive |
| COc1cc(C(=O)Nc2cc(-c3nc4cc(C)ccc4o3)ccc2C)cc(OC)c1OC | inconclusive [activator, partial curve, poor fit] |
| COc1cc2ccccc2cc1C(=O)Nc1ccc(C)cn1 | inconclusive [activator, partial curve, poor fit] |
| COc1ccccc1/C=C/C=N/NC(=O)c1ccco1 | inactive |
| CCCCNC(=O)C1CC(c2cccc([N+](=O)[O-])c2)=NO1 (stereo not drawn) | inconclusive [activator, partial curve, poor fit] |
| O=C(N/N=C/c1ccc(OCC(=O)N2CCCCC2)cc1)c1ccccc1O | inconclusive [activator, partial curve, poor fit] |
| CCC(=O)Nc1ccc(NC(=O)c2cccc(OC)c2)nc1 | inconclusive [activator, full curve, poor fit] |
| CN(Cc1ccccc1)C(=O)c1cc(-c2ccc(Br)cc2)on1 | inconclusive [activator, partial curve, poor fit] |
| CC1CCN(S(=O)(=O)c2cc(Cl)ccc2Br)CC1 | inconclusive [activator, single point] |
| CN(C)C1CCN(Cc2cc(COCc3ccccc3)c3cccnc3c2O)C1 (stereo not drawn) | inconclusive [activator, partial curve, poor fit] |
| O=C(c1ccco1)N1CCc2ccccc21 | inconclusive [activator, single point] |
| CN(C)[C@@H]1CCC[C@@H]1OC(=O)C(c1ccccc1)c1ccccc1 | inconclusive [activator, single point] |
| O=C(c1cc(COc2ccc(F)cc2F)on1)N1CCSCC1 | inactive |
| COc1cccc(N=Cc2ccc(O)cc2O)c1 | inconclusive [activator, partial curve, poor fit] |
| CCNc1nc(NCc2ccccc2)nc(SCC(=O)Nc2ccccc2)n1 | inactive |
| Cc1cccc(NC(=O)Nc2cccc(F)c2)n1 | inconclusive [activator, partial curve, poor fit] |
| Cc1c(C(=O)OCC(=O)N2CCCCC2C)oc2ccccc12 (stereo not drawn) | inconclusive [activator, single point] |
| N#CC1(c2ccc(NC(=O)c3ccccc3F)cc2)CCCC1 | inconclusive [activator, full curve, poor fit] |
| O=[N+]([O-])c1ccc(Sc2n[nH]c(-c3ccccc3)n2)nc1 | inconclusive [activator, partial curve, poor fit] |
| CCOC(=O)C1(CCc2ccccc2)CCN(Cc2ccc(O)cc2)CC1 | inactive |
